No constants are given. Whether binding was seen depends on the method and setting. Where a sequence is shown, tags or fusion partners need not be part of it.
Columns and labels:
[1] = molecular target: T1, UBIQUITIN-SPECIFIC PROTEASE 12 (UBP12), full length, yeast two-hybrid fusion (Arabidopsis thaliana) (UniProt Q9FPT1); experiment: two-hybrid; yeast two-hybrid, GAL4-BD and GAL4-AD fusions; growth on SD-LW for selection and on SD-LWHA to test for interactions
T1 sequence: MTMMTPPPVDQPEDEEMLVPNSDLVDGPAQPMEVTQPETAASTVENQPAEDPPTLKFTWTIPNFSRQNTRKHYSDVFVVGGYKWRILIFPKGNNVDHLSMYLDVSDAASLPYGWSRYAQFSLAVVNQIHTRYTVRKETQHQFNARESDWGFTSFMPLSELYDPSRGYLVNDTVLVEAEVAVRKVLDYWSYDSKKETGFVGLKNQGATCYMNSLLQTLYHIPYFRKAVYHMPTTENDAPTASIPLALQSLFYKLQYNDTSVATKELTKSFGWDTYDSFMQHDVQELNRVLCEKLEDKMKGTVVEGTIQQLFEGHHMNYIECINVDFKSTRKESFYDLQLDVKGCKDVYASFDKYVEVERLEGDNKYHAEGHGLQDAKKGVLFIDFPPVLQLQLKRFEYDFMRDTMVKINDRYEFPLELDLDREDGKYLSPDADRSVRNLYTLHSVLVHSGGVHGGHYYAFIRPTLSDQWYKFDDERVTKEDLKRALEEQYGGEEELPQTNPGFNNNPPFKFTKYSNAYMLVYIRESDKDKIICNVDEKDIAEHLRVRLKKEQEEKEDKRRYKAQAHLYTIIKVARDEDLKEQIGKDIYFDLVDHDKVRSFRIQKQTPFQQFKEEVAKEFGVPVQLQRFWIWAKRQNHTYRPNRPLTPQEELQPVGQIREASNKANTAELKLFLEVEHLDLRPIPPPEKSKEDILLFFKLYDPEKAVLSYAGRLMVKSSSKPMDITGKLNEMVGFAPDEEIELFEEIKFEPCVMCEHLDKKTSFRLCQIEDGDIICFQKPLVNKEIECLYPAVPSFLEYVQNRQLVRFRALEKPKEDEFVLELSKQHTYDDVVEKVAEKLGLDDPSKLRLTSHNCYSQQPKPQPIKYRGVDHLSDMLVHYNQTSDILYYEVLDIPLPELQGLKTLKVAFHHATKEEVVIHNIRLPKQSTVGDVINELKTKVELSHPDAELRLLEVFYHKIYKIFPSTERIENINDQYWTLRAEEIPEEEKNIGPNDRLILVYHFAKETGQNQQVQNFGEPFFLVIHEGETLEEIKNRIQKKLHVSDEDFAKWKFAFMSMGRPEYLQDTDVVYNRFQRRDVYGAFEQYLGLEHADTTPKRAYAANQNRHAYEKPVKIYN

The chains behind the UniProt entries cited, without tags or fusion partners.
UniProt Q9FTA2: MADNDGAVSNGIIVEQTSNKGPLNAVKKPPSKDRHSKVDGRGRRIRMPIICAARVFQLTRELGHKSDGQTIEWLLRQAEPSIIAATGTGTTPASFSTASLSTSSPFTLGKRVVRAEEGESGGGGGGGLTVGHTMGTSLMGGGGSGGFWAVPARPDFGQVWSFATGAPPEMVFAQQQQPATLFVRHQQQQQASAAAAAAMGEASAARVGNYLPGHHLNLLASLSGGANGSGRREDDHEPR
UniProt Q94BT6: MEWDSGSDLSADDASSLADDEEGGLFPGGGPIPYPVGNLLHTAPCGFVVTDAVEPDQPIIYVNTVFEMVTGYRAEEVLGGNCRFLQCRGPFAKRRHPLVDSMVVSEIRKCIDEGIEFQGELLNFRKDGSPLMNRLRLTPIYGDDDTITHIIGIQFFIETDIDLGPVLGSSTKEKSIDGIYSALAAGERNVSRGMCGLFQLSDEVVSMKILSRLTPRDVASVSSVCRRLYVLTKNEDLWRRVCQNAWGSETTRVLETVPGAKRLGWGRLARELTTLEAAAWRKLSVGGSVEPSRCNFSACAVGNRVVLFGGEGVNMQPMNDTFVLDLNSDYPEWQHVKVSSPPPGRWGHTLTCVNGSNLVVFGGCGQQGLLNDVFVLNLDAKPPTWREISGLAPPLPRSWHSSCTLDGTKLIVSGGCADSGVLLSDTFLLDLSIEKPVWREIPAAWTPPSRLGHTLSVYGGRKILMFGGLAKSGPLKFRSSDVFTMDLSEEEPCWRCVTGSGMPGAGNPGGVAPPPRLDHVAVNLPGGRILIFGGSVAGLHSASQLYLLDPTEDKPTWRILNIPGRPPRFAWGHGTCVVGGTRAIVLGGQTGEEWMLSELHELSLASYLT

[2] = molecular target: T2, UBIQUITIN-SPECIFIC PROTEASE 13 (UBP13), full length, yeast two-hybrid fusion (Arabidopsis thaliana) (UniProt Q84WU2); experiment: as above
T2 sequence: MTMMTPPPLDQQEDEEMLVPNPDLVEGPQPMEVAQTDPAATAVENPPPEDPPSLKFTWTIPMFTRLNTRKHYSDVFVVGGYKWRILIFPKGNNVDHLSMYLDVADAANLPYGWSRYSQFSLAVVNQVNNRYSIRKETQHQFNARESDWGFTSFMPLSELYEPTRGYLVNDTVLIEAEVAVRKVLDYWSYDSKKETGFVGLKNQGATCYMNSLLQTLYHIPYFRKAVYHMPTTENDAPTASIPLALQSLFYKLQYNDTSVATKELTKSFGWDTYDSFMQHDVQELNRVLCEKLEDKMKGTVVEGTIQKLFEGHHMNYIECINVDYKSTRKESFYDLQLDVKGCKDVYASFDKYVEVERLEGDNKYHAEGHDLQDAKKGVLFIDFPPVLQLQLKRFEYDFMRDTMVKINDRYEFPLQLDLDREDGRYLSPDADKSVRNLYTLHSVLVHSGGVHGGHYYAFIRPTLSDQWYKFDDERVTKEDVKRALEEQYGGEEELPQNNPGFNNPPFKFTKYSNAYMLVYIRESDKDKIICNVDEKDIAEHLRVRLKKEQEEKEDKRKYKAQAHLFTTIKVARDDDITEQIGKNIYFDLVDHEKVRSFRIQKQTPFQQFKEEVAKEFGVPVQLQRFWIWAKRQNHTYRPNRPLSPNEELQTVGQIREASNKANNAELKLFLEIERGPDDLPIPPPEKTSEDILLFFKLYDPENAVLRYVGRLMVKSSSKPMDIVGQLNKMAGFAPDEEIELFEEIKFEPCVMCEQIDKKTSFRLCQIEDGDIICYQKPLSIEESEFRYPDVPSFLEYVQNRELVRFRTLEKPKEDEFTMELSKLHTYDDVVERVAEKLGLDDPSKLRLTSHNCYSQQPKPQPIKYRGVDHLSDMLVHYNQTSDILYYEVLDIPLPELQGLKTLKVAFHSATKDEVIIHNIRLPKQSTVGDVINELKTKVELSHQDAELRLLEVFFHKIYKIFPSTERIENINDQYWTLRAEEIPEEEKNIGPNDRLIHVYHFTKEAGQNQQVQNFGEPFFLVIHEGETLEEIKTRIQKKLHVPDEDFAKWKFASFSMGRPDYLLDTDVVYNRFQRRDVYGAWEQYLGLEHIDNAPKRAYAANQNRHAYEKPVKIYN

Row | Substance | binding [1] | binding [2]
1 | CCA1 HIKING EXPEDITION (CHE), yeast two-hybrid fusion (from UniProt Q9FTA2 1-239) | no binding | no binding
2 | ZEITLUPE (ZTL), full length, yeast two-hybrid fusion (from UniProt Q94BT6 1-609) | no binding | no binding

Reference: article PMC6704089
